Measurements as given in patent US20120003694A1 (SYRACUSE UNIVERSITY, published 2012).

Assays:
[1] = molecular target: T1, pb2(95)-Ba (barnase fused to the first 95 amino acids of the N-terminal region of pre-cytochrome b2) (UniProt P00175 1-95; P00648 48-157)
T1 construct: range 1-95;domain: folded ribonuclease barnase (Ba), 110-residue
T1 sequence: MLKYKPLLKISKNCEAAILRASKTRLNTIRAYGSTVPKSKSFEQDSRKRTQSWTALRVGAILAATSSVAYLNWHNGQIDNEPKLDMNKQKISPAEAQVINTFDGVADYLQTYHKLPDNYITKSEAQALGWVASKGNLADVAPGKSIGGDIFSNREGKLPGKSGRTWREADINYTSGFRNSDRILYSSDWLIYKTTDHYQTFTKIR

[2] = molecular target: T2, pb2(65)-Ba (barnase fused to the first 65 amino acids of the N-terminal region of pre-cytochrome b2) (UniProt P00175 1-65; P00648 48-157)
T2 construct: range 1-65;domain: folded ribonuclease barnase (Ba), 110-residue
T2 sequence: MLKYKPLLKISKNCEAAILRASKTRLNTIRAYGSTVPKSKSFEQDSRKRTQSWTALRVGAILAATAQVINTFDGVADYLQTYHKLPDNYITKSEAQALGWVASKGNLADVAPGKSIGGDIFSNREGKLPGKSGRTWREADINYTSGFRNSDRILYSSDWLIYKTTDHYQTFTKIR

B1: FhuA ΔC/Δ4L protein nanopore (engineered Escherichia coli ferric hydroxamate uptake component A lacking the cork domain and loops L3, L4, L5 and L11) (other)
chain: LKEVQFKAGTDSLFQTGFDFSDSLDDDGVYSYRLTGLARSANAQQKGSEEQRYAIAPAFTWRPDDKTNFTFLSYFQNEPETGNSEGSTYSRNEKMVGYSFDHEFNDTFTVRQNLRFAENKTSQNSVYGYGVNSEGSYLARKYVVDDEKLQNFSVDTQLQSKFATGDIDHTLLTGVDFMRMRNDINAWFGYNSEGSGPYRILNKQKQTGVYVQDQAQWDKVLVTLGGRYDWADQESLNRVAGTTDKRDDKQFTWRGGVNYLFDNGVTPYFSYSESFEPSSQVGKDGNIFAPSKGKQYEVGVKYVPEDRPIVVTGAVYNLTKTNNLMADPEGSFFSVEGGEIRARGVEIEAKAALSASVNVVGSYTYTDAEYTTDTTYKGNTPAQVPKHMASLWADYTFFDGPLSGLTLGTGGRYTGSSYGDPANSFKVGSYTVVDALVRYDLARVGMAGSNVALHVNNSEGSQVVATATFRF
- koff [1]: 3000 s⁻¹
- kon [1]: 280000 M⁻¹ s⁻¹
- koff [2]: 9000 s⁻¹
- kon [2]: 200000 M⁻¹ s⁻¹
